# About 2,200 (0.71%) of roughly 310,000 compounds showed an effect of 50% or more. The effect is printed as a negative number. This is one part of the list.
# Biological target: human ether-à-go-go-related gene (hERG) potassium channel (human, UniProt Q12809)
# Assay: primary screen, population patch clamp on CHO cells stably expressing hERG
# Sequence of human ether-à-go-go-related gene (hERG) potassium channel (Q12809 whole entry, looked up): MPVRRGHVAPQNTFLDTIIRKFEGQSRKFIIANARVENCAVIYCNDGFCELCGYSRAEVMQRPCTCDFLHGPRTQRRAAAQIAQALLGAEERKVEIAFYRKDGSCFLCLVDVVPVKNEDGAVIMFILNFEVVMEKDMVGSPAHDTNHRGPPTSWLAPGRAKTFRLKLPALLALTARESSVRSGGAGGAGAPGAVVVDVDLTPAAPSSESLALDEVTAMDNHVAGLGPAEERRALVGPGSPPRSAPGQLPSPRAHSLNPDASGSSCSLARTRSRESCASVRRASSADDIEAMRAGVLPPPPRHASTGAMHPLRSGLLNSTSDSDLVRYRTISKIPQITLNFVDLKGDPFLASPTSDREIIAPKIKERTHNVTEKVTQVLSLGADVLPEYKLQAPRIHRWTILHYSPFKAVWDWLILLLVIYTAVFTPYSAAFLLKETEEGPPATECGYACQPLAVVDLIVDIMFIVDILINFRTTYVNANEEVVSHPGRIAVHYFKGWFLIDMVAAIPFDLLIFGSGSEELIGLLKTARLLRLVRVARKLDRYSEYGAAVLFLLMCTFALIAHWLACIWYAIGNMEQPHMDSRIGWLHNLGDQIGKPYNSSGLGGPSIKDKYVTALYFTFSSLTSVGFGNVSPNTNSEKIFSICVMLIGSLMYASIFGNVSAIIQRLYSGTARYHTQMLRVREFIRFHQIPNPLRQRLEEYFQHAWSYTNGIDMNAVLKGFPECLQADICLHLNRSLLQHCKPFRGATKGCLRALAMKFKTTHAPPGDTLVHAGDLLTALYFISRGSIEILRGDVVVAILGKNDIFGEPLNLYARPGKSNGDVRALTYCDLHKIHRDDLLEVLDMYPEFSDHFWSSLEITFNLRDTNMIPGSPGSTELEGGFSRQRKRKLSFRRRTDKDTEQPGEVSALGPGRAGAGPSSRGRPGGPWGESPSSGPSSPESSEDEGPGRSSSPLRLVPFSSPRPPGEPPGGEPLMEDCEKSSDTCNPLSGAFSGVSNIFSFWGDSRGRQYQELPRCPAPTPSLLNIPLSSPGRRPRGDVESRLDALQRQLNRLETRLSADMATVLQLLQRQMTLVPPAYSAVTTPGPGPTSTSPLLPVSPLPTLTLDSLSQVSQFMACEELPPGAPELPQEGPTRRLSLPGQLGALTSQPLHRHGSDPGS
row,SMILES,"hERG current change (%, negative = inhibition) at 1uM [%]"
1,O=C(Nc1ccc(Oc2ccc(C(F)(F)F)cn2)c(Cl)c1)C1CC1,12.5
2,Cc1cc(C)c(NC(=O)COC(=O)c2c(C)noc2C)c(Cl)c1,6.85
3,CN(Cc1nc(-c2ccc(Cl)cc2)no1)C(=O)c1ccco1,5.17
4,O=C(NCc1cc(C(F)(F)F)cc(C(F)(F)F)c1)C1CC(c2cccc(F)c2)=NO1 (stereo not drawn),2.14
5,COCCNC(=O)C1CC(c2ccc(F)cc2)=NO1 (stereo not drawn),14
6,O=C1C(Nc2ccccc2)=C(N2CCCCC2)C(=O)c2ccccc21,5.01
7,CC(C)c1ccc(/C=N/NC(=O)c2cc(-c3cccc([N+](=O)[O-])c3)n[nH]2)cc1,11.5
8,N#CC1(NC(=O)COc2cccnc2[N+](=O)[O-])CCCCC1,10.6
9,Cc1ccc(NC(=O)C2CCN(S(=O)(=O)c3ccc4c(c3)C(C)(C)C(=O)N4C)CC2)c(C)c1,13
10,Cc1nc(C)c(C(=O)N2CCCC(CCC(=O)NCc3ccc(F)c(F)c3)C2)s1 (stereo not drawn),7.25
11,Cn1c2ccccc2c2cnn(CC(=O)Nc3ccc(F)cc3F)c(=O)c21,7.03
12,Cc1nc2nc(SCC(=O)N3CCOCC3)nn2c(C)c1Cc1c(F)cccc1Cl,3.11
13,Cc1cc(C)cc(N(CC(=O)N2CC=C(c3ccccc3)CC2)S(=O)(=O)c2c(C)noc2C)c1,9.21
14,COc1ccc([N+](=O)[O-])cc1NC1CCCCC1.O=C(O)C(=O)O,7.39
15,Cc1ccc(NC(=O)c2ccc3ccccc3n2)cc1S(=O)(=O)N(C)C,9.94
16,CN(C)/C=C/C(=O)c1ccc(OCCN(C)c2ccccn2)cc1,9.93
17,CC(=O)Nc1ccc(NC(=O)C(C)OC(=O)c2ccccc2C(=O)c2ccc(Cl)c([N+](=O)[O-])c2)cc1 (stereo not drawn),2.9
18,COc1cc(NC(=O)C2CCN(S(=O)(=O)c3cccs3)CC2)cc(OC)c1,10.9
19,O=C(Cc1ccccc1F)NC1CCCc2ccccc21 (stereo not drawn),17.9

row,SMILES,"hERG current change (%, negative = inhibition) at 1uM [%]"
1,Cn1c(CCN2CCCCC2)nc2cc(NC(=O)COc3ccc(Cl)cc3)ccc21,-89.6
2,Cc1nc2ccccc2cc1C(=O)NCc1ccccc1,11
3,O=C(N/N=C/c1ccccn1)c1c[nH]c2ccccc12,17.1
4,CC1C(=O)Nc2ccc(S(=O)(=O)NCc3ccc(Cl)cc3)cc2NC1=O (stereo not drawn),18.7
5,O=C(Nc1ccc(Cc2ccncc2)cc1)c1ccco1,-0.641
6,COc1cc(NC(=O)c2cc(C)no2)cc(OC)c1OC,19.9
7,N#C/C(=C\c1cccnc1)c1nc2c(s1)CCCC2,11.5
8,CC(C)CCN1CCN(Cc2nc3c(s2)CCCC3)CC1CCO (stereo not drawn),-4.81
9,O=C1CC(c2ccc(F)cc2)Sc2ccccc2N1 (stereo not drawn),-6.6
10,COC(=O)Cn1c(O)c(N=NC(=O)c2ccc3c(c2)OCO3)c2ccccc21,13.7
11,Cc1ccc(S(=O)(=O)NN2C(=O)c3ccccc3NC2c2ccccc2F)cc1 (stereo not drawn),10.2
12,COc1cccc(CN(C)CC(=O)Nc2ccccc2C(=O)Nc2ccccc2)c1OC,12.8
13,CCN1C(=O)c2ccccc2Sc2ccc(C(=O)NCCN3CCOCC3)cc21,4.7
14,CCOC(=O)c1nnn(-c2nonc2-n2cccc2)c1CCl,19.5
15,CCc1nnc(NC(=O)c2ccc(COc3cccc(C)c3)o2)s1,20.6
16,COCC(=O)N1CCN(c2nc3ccccc3o2)CC1,13.3
17,Cc1ccc(C)c(NC(=O)c2sc(Cl)nc2C)c1,3.99
18,CCn1cc(C(=O)NCC(=O)NCCCN2CCOCC2)c(=O)c2cc3c(cc21)OCO3,10.2
19,CCCCCCn1c(=O)c(C(=O)Nc2cccc(C)n2)c(O)c2ccccc21,14.9

row,SMILES,"hERG current change (%, negative = inhibition) at 1uM [%]"
1,CCOc1ccc(C(=S)N2CCOCC2)cc1OC,11.6
2,O=C(Nc1ccc2c(c1)OCO2)c1ccc([N+](=O)[O-])cc1[N+](=O)[O-],9.81
3,O=S(=O)(c1ccccc1)N1C2CCC1CC(O)(c1cccnc1)C2 (stereo not drawn),4.06
4,CCOC(=O)c1c(/N=C/N(C)C)sc(C)c1C,8.85
5,O=[N+]([O-])c1cc([N+](=O)[O-])c(Oc2cccnc2Br)cc1NN1CCCCC1,7.94
6,CN(C)C(=O)CN1C(=O)NC2(CCCc3ccccc32)C1=O (stereo not drawn),16
7,COc1ccccc1N1CCN(C(=O)CSc2nc3ccccc3o2)CC1,10.8
8,O=C(NCCC1=CCCCC1)C1CCC(CNc2c(N3CCCCC3)c(=O)c2=O)CC1 (stereo not drawn),14.7
9,CCOC(=O)c1c(C)n(O)c2ccc(Cl)cc2c1=O,13
10,CCOC(=O)c1cnc2cc(F)c(F)cc2c1N1CCOCC1,12.8
11,Clc1cc(Cl)c2nc(N3CCCC3)sc2c1,12.6
12,COCCN(Cc1nc(-c2ccc(-c3ccccc3)cc2)oc1C)C(C)C,2.62
13,Cc1ccc(CNC(=O)C(=O)NCC2OCCN2S(=O)(=O)c2ccc(Cl)cc2)cc1 (stereo not drawn),-3.01
14,O=C(CNC(=S)NC(=O)c1ccc(Cl)cc1)c1ccccc1,15
15,O=C(CC1(O)C(=O)N(CCc2ccccc2)c2ccccc21)c1ccco1 (stereo not drawn),-0.106
16,CCCCNC(=O)CN(CCc1ccccc1)S(C)(=O)=O,0.874
17,CC(C)N1C(=O)N(c2cccc(Cl)c2)C(C)(O)CC1(C)C (stereo not drawn),14.4
18,O=C(c1ccccc1)N1CCCCC(Sc2nnc3ccccn23)C1=O (stereo not drawn),17
19,O=C(NCCC1=CCCCC1)NC12CC3CC(CC(C3)C1)C2,0.57

# From publication PMC4336329 (PLoS ONE, 2015)
